Reference: PubChem BioAssay AID504339 (National Center for Advancing Translational Sciences (NCATS), 2011)
About 17,000 (4.4%) of roughly 390,000 compounds were called active. Inconclusive results, whose numbers are uncertain, are shown with a selection of clear calls. The call rests on the fitted dose curve; in most records, active means well fitted inhibition curve with a large enough effect; inconclusive means small, poorly fitted or top-dose-only effect; inactive means no such curve, though single readings can be large or run the other way. Potencies beside an inconclusive call are fits to weak or partial responses and may not hold up.

These compounds were tested against Lysine-specific demethylase 4A (Homo sapiens) (UniProt O75164) (assay: qHTS Assay for Inhibitors of JMJD2A-Tudor Domain). Settings: AlphaScreen JMJD2A-Tudor / H3K4me3 peptide binding; activity change, negative = inhibition: at 114 µM (top of the series).
UniProt O75164, sequence (O75164 whole entry, looked up, the tested form may be a part): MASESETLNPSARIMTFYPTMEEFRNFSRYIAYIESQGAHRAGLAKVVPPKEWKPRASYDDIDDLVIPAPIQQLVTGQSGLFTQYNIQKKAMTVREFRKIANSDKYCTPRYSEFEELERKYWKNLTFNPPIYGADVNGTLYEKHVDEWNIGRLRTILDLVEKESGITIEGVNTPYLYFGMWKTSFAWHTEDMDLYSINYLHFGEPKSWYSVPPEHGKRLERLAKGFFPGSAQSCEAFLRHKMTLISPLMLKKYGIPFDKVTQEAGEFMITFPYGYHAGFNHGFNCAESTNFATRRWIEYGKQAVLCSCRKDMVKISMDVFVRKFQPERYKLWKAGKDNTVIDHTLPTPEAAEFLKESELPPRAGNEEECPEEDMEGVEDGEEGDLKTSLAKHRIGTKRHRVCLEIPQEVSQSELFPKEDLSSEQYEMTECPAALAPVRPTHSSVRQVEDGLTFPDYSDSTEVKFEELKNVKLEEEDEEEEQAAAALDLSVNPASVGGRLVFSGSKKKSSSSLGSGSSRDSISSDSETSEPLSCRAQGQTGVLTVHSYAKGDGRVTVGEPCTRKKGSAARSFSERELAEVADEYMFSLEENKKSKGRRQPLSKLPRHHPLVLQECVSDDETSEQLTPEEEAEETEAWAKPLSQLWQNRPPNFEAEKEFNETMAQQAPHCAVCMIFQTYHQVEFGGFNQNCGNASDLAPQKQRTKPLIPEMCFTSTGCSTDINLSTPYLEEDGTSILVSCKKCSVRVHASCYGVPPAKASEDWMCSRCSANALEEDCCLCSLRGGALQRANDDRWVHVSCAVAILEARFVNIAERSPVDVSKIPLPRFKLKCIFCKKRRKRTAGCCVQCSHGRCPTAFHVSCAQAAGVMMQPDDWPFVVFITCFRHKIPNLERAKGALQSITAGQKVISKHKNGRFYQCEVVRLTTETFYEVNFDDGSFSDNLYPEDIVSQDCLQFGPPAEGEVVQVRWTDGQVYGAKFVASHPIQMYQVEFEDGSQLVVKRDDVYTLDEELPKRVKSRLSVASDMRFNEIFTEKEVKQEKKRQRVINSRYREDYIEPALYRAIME
Further: nearly all actives have a fitted effect of over 50% in size.
On the % scale 0 is the no-effect control and ±100 the full control effect; potency means the concentration at half of the fitted maximal effect; tags describe the fitted curve by direction and shape.

Potency, active:
C=CCn1c(C(C)NC(=O)c2cccc(C)c2)n[nH]c1=S (configuration not stated) 17.8 µM
CCCCn1c(-c2csc(C(C)C)c2)n[nH]c1=S 79.4 µM
CC(C)[C@H]1CN=C2N(C[C@H](C)NC(=O)CCC3CCCCC3)[C@H](Cc3ccc(O)cc3)CN21 79.4 µM
C=CCn1c(-c2cccc(OC)c2)n[nH]c1=S 11.2 µM
CNC(=O)c1nc(C)n(-c2ccc(Cl)cc2Cl)n1 10 µM
COc1ccc(CN2CCc3c([nH]c4ccccc34)C2)c(OC)c1C 1.26 µM
COc1cccc(-c2n[nH]c(=S)n2Cc2ccco2)c1OC 7.94 µM
Cc1ccccc1CN1CCCC(C(=O)N2CCCCC2)C1 (configuration not stated) 22.4 µM
O=C(Nc1ccc(C2=NCCN2)cc1)c1ccc(C(=O)Nc2ccc(C3=NCCN3)cc2)c(Cl)c1 56.2 µM
c1ccc(N2CCN(Cc3ccc4c(c3)OCO4)CC2)nc1 28.2 µM
S=c1[nH]nc(-c2cccnc2)n1/N=C/c1ccco1 25.1 µM
O=C(Cc1ccc(S(=O)(=O)N2CCOCC2)s1)Nc1nc2c(s1)CCCC2 56.2 µM
Cn1c(SCC(=O)NNC(=O)Cc2ccccc2)nc2ccccc2c1=O 22.4 µM
CC(C)Oc1ccccc1/C=N/Nc1ccccc1[N+](=O)[O-] 14.1 µM
COC(=O)c1ccc2c(=O)n(NC(C)=O)c(=S)[nH]c2c1 3.55 µM
CN(C(=S)Nc1ccc(Oc2ccccc2)cc1)c1ccc(O)cc1 56.2 µM

Potency, inconclusive:
CN(CC(=O)O/N=C(\N)c1ccccn1)S(=O)(=O)c1ccccc1 12.6 µM [inhibitor, full curve]
O=S(=O)(NCc1ccccn1)c1ccc(Br)s1 3.55 µM [inhibitor, full curve, poor fit]
COc1ccc(-n2cc3c(-c4cccc(Br)c4)nnc(C)c3n2)cc1 17.8 µM [inhibitor, full curve]
O=C(O)CCc1ccc(-c2ccc(Cl)cc2)n1Cc1ccco1 89.1 µM [inhibitor, partial curve, poor fit]
CCOc1ccc2nc(N3C(=O)/C(=C/c4ccc(Cl)cc4)NC3=S)sc2c1 63.1 µM [inhibitor, partial curve, poor fit]
Cc1[nH]c2c(C(=O)N3CCCC(CCC(=O)NCc4ccccc4F)C3)cccc2c1C (configuration not stated) 50.1 µM [inhibitor, partial curve]
CCC(Sc1ccc2nnc(-c3ccc(F)cc3)n2n1)C(=O)O (configuration not stated) 22.4 µM [inhibitor, full curve]
CC(C)c1ccc(NC(=S)NC2CCN(Cc3ccccc3)CC2)cc1 50.1 µM [inhibitor, partial curve]
CC(C)OC(=O)c1c2c(n3ccccc13)C(=O)c1ccccc1C2=O 11.2 µM [inhibitor, full curve]
O=C(NNS(=O)(=O)c1ccc(Br)cc1)c1ccncc1 10 µM [inhibitor, full curve]
COc1ccc(C2C(C(C)=O)=C(Nc3ccccc3)CC(C)(O)C2C(C)=O)cc1OC (configuration not stated) 50.1 µM [inhibitor, partial curve]
O=C(OCC(=O)c1ccc[nH]1)c1ccc(Br)cc1 56.2 µM [inhibitor, partial curve]
CCN(CCCNC(=O)CN1N=C(c2ccccc2)CCC1=O)c1cccc(C)c1 50.1 µM [inhibitor, partial curve]
O=C1c2ccccc2-c2onc3ccc(N4CCCC4)c1c23 56.2 µM [inhibitor, partial curve, poor fit]
COC(=O)c1ccc(/C=N/N2CCN(Cc3ccc(C)cc3C)CC2)cc1 14.1 µM [inhibitor, full curve]
O=C(O)c1ccc(Oc2ccc(S(=O)(=O)c3ccc(C(=O)O)c(C(=O)O)c3)cc2)cc1 79.4 µM [inhibitor, partial curve]
Cc1ccc(NS(=O)(=O)c2ccc3c(c2)C(=O)c2ccccc2C3=O)c(C)c1 10 µM [inhibitor, partial curve]
Cc1cc(C)cc(N2C(=O)CC(N(C(=O)c3ccco3)c3cc(C)cc(C)c3)C2=O)c1 (configuration not stated) 56.2 µM [inhibitor, partial curve]
COc1ccc(CCNC(=O)c2ccc3nc(-c4ccco4)c(-c4ccco4)nc3c2)cc1OC 17.8 µM [inhibitor, partial curve]
CCN1CCN(Cc2ccc(NC(=O)c3cc(NC(=O)c4cc5cccc(OC)c5o4)cc(OC)c3)cc2C(F)(F)F)CC1 44.7 µM [inhibitor, partial curve]
O=S(=O)(NNc1ncc(C(F)(F)F)cc1Cl)c1ccc(F)cc1F 31.6 µM [inhibitor, single point]
COc1cccc(NC(=O)CSc2nnc(Cc3cccn3C)n2-c2ccc(F)cc2)c1 56.2 µM [inhibitor, partial curve]
COc1ccc(Nc2cc(C(=O)NCCCN3CCN(C)CC3)c3ccccc3n2)c(OC)c1 79.4 µM [inhibitor, partial curve]
CC(C)(C)C(=O)NC(=S)Nc1ccc(Cc2ccncc2)cc1 89.1 µM [inhibitor, partial curve]
NC(=O)[C@@H]1CC2(CC(c3cccc(NC(=O)[C@H]4CCC(=O)N4)c3)=NO2)CN1C(=O)COc1ccc(Cl)cc1 (some centres not stated) 3.55 µM [inhibitor, full curve, poor fit]
O=C(CCS(=O)(=O)c1cc2c(cc1Cl)NC(=O)CO2)NCc1ccccc1 15.8 µM [inhibitor, single point]
NC(=S)NNC(=O)Nc1ccc(Cl)c(Cl)c1 63.1 µM [inhibitor, single point]
O=C(NCCCN1CCN(c2ccccc2F)CC1)c1sc2ncccc2c1-n1cccc1 44.7 µM [inhibitor, partial curve]
CCOC(=O)c1c(C)n(-c2ccc(C)cc2)c2ccc(O)c(CN(C)C)c12 56.2 µM [inhibitor, partial curve, poor fit]
CCCC(=O)OC1=C(C(C)=O)N(Cc2ccccc2)S(=O)(=O)c2ccccc21 89.1 µM [inhibitor, partial curve]
CN(CC(=O)Nc1ccc(F)cc1[N+](=O)[O-])Cc1ccccc1 56.2 µM [inhibitor, partial curve]
Cc1ccc(OCc2cc(=O)n3c(-c4ccccc4)csc3n2)cc1 8.91 µM [inhibitor, full curve, poor fit]
Nc1nc(-c2cccc(NS(=O)(=O)c3ccccc3)c2)cs1 56.2 µM [inhibitor, partial curve]
C=CCN(CC=C)CCCOc1ccccc1C(=O)OC 44.7 µM [inhibitor, single point]
CCN(CCCNC(=O)COc1cc(=O)n(C)c2ccccc12)c1ccccc1 56.2 µM [inhibitor, partial curve, poor fit]
C/C(=N\NS(=O)(=O)c1ccc(Cl)c([N+](=O)[O-])c1)c1ccc(C)o1 56.2 µM [inhibitor, partial curve]

Activity change, negative = inhibition, inactive:
Cc1ccc(CNC(=O)CCCCCn2c(=O)c3sccc3n(CC(=O)C(C)(C)C)c2=O)cc1 0.341%
O=C(NCCN1CCOCC1)c1cc(S(=O)(=O)Nc2ccccc2F)c(Cl)cc1Cl -6.62% [at 11.4 µM]
COc1cccc(NC(=O)c2ccc3c(c2)OCCO3)c1 -1.38%
CSc1ncc(Cl)c(C(=O)Nc2c(C(=O)c3ccc(C)cc3)oc3ccccc23)n1 -13.2%
CC1SC2(NC1=O)C1CC3CC(C1)CC2C3 (configuration not stated) -3.55%
O=C(O)CN1C(=O)S/C(=C\c2cccnc2)C1=O -18.1%
C/C(=N/NC(=O)COc1cc(C)ccc1C(C)C)C(=O)O -19.6%
Cc1ccc2[nH]c3c(=O)n(CC(=O)N4CCN(c5ccccc5F)CC4)ncc3c2c1 9.39%
CC(C)(C)N(CC(=O)NC1CCCCC1)C(=O)CS(=O)CC(=O)Nc1ccc(F)cc1 (configuration not stated) 0.351%
Brc1ccc(-c2cn3cc(Cc4ccccc4)sc3n2)cc1 -14.4%
CCOc1ccc(-c2cc3nc(C4CCN(C(=O)OC(C)(C)C)CC4)c(C(=O)Nc4cccc(Cl)c4C)cn3n2)cc1 -5.3%
CC(C)S(=O)(=O)C1=NSC2=NC(=O)/C(=C\c3ccc(-c4ccccc4)o3)C(=N)N21 -26.2%
COc1cc(/C=C/C(=O)OCc2csc(CC(=O)Nc3ccc(C)cc3)n2)ccc1OCC#N -20.9%
Cc1c(C(=O)Oc2ccc(Br)cc2)sc2ncn(Cc3ccccc3F)c(=O)c12 14.1%
COc1ccc(NC(=O)Nc2nnc(CC(=O)Nc3ccccc3)s2)cc1 -11.6%
Cc1ccc(C=NNC(=O)c2cc(-c3cccnc3)nc3ccccc23)o1 -35.2%
CN(C(=O)CSc1nc2ccc(NC(=O)c3cccs3)cc2s1)c1ccccc1 -9.6%
CCc1ccc(CNC(=O)C2CCN(C(=O)c3ccc(-n4c(C)cc5ccccc54)s3)CC2)cc1 -27.6%
CC1Cc2ccccc2N1C(=O)CSC1=NCCS1 (configuration not stated) -10.3%
S=c1[nH]c2cc3ccccc3cc2[nH]1 -23.3%
